# Test results taken from PubChem BioAssay AID360 (National Center for Advancing Translational Sciences (NCATS), 2006).
# Out of some 48,000 compounds screened, about 550 (1.1%) were called active. Inconclusive results (about 4%) are left out. Rule as the data show it: active = potency below about 15 µM; inconclusive = mostly about 16 µM to 33 µM; inactive = weaker than that. The list shows a part of the results.
# Biological target: Lysosomal acid glucosylceramidase (Homo sapiens) (UniProt P04062)
# Assay: Glucocerebrosidase;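 also: the screen sought inhibitors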
# Conditions: purified enzyme, resorufin glucoside fluorescence (screen aimed at inhibitors), 20 min
# Outline: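 Compounds titrated against 0.2 nM normal enzyme, 30 uM resorufin beta-D-glucopyranoside substrate, citrate/phosphate buffer with taurocholate and tween-20, pH 5.9. Reaction ran 20 min at room temperature; fluorescence (Ex 548/Em 600) gave AC50.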
# Potency is read from the fitted curve at half-maximal effect.
# Chain of UniProt P04062 (P04062 whole entry, looked up): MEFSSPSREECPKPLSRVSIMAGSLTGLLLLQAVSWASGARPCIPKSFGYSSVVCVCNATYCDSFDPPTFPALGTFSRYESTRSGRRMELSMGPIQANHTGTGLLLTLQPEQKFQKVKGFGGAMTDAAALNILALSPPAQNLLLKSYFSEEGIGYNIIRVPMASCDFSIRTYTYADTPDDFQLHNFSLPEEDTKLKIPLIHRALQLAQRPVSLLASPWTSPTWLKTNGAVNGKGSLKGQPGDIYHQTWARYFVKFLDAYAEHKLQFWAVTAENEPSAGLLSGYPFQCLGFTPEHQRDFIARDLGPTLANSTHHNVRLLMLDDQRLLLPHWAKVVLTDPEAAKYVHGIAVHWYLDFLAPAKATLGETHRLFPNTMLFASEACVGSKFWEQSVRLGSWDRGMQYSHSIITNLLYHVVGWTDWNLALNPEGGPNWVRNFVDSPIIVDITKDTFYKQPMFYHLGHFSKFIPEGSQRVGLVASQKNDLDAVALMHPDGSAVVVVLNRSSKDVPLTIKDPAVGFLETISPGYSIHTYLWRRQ
row,Structure (SMILES),Potency
1,Nc1nonc1C(=O)NCCNC(=O)c1cccs1,inactive: > 76.9 µM
2,O=C(c1ccc(Cl)cc1)C1CCN(C(=O)N2CCOCC2)CC1,inactive: > 76.9 µM
3,COC(=O)c1cnn(-c2ccc(C)c(C)c2)c1-n1cccc1,inactive: > 76.9 µM
4,CC(=O)Nc1ccc(S(=O)(=O)Nc2cccc(NC(=O)C(C)(C)C)c2)cc1,inactive: > 76.9 µM
5,CCCCN(CCCC)S(=O)(=O)c1ccc2oc(C(=O)N3CCOCC3)c(C)c2c1,inactive: > 76.9 µM
6,Cn1nc(CC(=O)NCCN2C(=O)CSC2=O)c2ccccc2c1=O,inactive: > 76.9 µM
7,CC(C)(C)NC(=O)NC(=O)COc1ccccn1,inactive: > 76.9 µM
8,O=C(NCc1ccccn1)c1cnc2sccn2c1=O,inactive: > 76.9 µM
9,Cc1nn2c(nc1=O)SCC(c1ccccc1)=N2,inactive: > 76.9 µM
10,CCC(C)(C)n1nnnc1C(C(C)C)N1CCN(C)CC1 (stereo not drawn),inactive: > 76.9 µM
11,COCCN1C(=O)c2ccc(C(=O)O)cc2C1=O,inactive: > 76.9 µM
12,Cc1ccc(-c2nnc(CSc3nnc4c5c(C)c(C)sc5nc(C(C)C)n34)o2)cc1,inactive: > 76.9 µM
13,CCc1nnc2c3cnn(-c4ccccc4)c3ncn12,inactive: > 76.9 µM
14,CCOCCc1c(O)nc(SCC(=O)NCc2ccco2)[nH]c1=O,inactive: > 76.9 µM
15,CCOCCCNC(=O)C(c1ccc(Cl)cc1)N1CCN(C(=O)c2ccco2)CC1 (stereo not drawn),inactive: > 76.9 µM
16,O=C(COc1cccc(Oc2ccccc2)c1)Nc1ncccn1,inactive: > 76.9 µM
17,COc1ccc(NC(=O)CCS(=O)(=O)c2ccc3c(c2)CCCN3C(C)=O)cc1,inactive: > 76.9 µM
18,CC(C)CCNC(=O)NC(=O)CN1C(=O)NC2(CCCCC2)C1=O,inactive: > 76.9 µM
19,CCN(CCCNC(=O)CN(C)S(=O)(=O)c1cccc2nsnc12)c1cccc(C)c1,inactive: > 76.9 µM
20,Cc1cc(C)n(-c2ccc(Cl)c(C(=O)O)n2)n1,inactive: > 76.9 µM
21,O=C(NC1CCCC1)C1CCN(S(=O)(=O)N2CCCCC2)CC1,inactive: > 76.9 µM
22,O=C1CC(N2CCN(c3ccc(F)cc3)CC2)C(=O)N1Cc1ccc(N2CCCC2=O)cc1 (stereo not drawn),inactive: > 76.9 µM
23,CC1(C)C(=O)OC(c2cccs2)C(C)(C)C1=O (stereo not drawn),inactive: > 76.9 µM
24,O=C(O)c1cc(/C=N\O)ccc1OCc1ccccc1,inactive: > 76.9 µM

row,Structure (SMILES),Potency
1,Cc1cc(=O)n2nc(N3CCC(C(=O)NCCC4=CCCCC4)CC3)sc2n1,inactive: > 76.9 µM
2,CCn1c(COc2ccccc2)nnc1SCC(=O)Nc1ccc2c(c1)OCCO2,inactive: > 76.9 µM
3,COc1cc(NC(=O)c2ccccc2)cc(OC)c1,inactive: > 76.9 µM
4,Cc1cc(Cl)ccc1OCC(=O)Nn1c(C)ccc1C,inactive
5,CCCc1cc(C(N)=O)c(NC(=O)c2ccco2)s1,inactive: > 76.9 µM
6,Cc1ccc(N2C(N)=C(C#N)C(c3cccnc3)C3=C2CC(C)(C)CC3=O)cc1 (stereo not drawn),inactive: > 76.9 µM
7,CCNC(=O)CN(c1ccc(OC)c(OC)c1)S(=O)(=O)c1ccccc1,inactive: > 76.9 µM
8,Nn1c(SCc2csc(-c3ccccc3)n2)nnc1-c1cccs1,inactive: > 76.9 µM
9,COc1ccc(-c2cc(C(F)(F)F)nc(N3CCN(c4ccc(F)cc4)CC3)n2)cc1OC,inactive: > 76.9 µM
10,CCOc1cc(C)c(S(=O)(=O)Nc2ccc(Cl)cn2)cc1C,inactive
11,O=c1c2cc(N3CCOCC3)ccc2[nH]c(=S)n1CCCN1CCCC1,inactive: > 76.9 µM
12,CC(NC(=O)NCC1CCCO1)(C(F)(F)F)C(F)(F)F (stereo not drawn),inactive: > 76.9 µM
13,CSc1nnc(-c2cnccn2)n1CCCN1CCCC1=O,inactive: > 76.9 µM
14,Cn1c(CCNC(=O)c2ccco2)nc2cc(NC(=O)NC3CCCCC3)ccc21,inactive: > 76.9 µM
15,O=C(O)C1CCCN1S(=O)(=O)c1ccc2c(c1)CCC2 (stereo not drawn),inactive: > 76.9 µM
16,Cc1csc(NC(=O)c2cccc(Cn3nc(C)c(Br)c3C)c2)n1,inactive: > 76.9 µM
17,COc1ccc2[nH]c(=O)c(CN(CC3CCCO3)C(=O)Nc3ccccc3)cc2c1 (stereo not drawn),inactive: > 76.9 µM
18,COC(=O)C1=C(C)NC(=O)CC1c1cc(Br)ccc1F (stereo not drawn),inactive: > 76.9 µM
19,O=C(Nc1cccnc1)c1c(F)c(F)c(F)c(F)c1F,inactive: > 76.9 µM
20,O=C(Nc1ccc(N2CCCCC2)c(C(=O)O)c1)c1ccco1,inactive: > 76.9 µM
21,Cc1cc(C(=O)COc2cccc3cccnc23)c(C)n1C,inactive: > 76.9 µM
22,COCCn1c(Cc2ccccc2)nnc1SCC(=O)NC(C)C,inactive: > 76.9 µM
23,CCN(CC)S(=O)(=O)c1cccc(-c2nnc(SCC(=O)c3cc(C)n(C)c3C)o2)c1,inactive: > 76.9 µM
24,COc1ccccc1NC(=O)Cn1c(CN2CCCCC2)nc2ccccc2c1=O,inactive: > 76.9 µM

row,Structure (SMILES),Potency
1,CC(C)C(c1nnnn1CCc1ccccc1)N1CCOCC1 (stereo not drawn),inactive: > 76.9 µM
2,Cc1ccc(C)c(NC(=O)CSc2nnc([C@@H]3CCCN3C(=O)OC(C)(C)C)o2)c1,inactive: > 76.9 µM
3,CCOC(=O)CCCNC(=O)COC(=O)c1cccc(C)c1O,inactive: > 76.9 µM
4,Nn1c(SCC(=O)NC(=O)NC2CCCC2)nnc1-c1ccccc1F,inactive: > 76.9 µM
5,CCCCCn1c(CNC(=O)COC)nc2ccccc21,inactive: > 76.9 µM
6,O=C(COc1ccccc1)Nc1ccccc1N1CCCCC1,inactive: > 76.9 µM
7,COc1ccc(-c2nnc(NC(=O)c3ccc(S(=O)(=O)N4CCc5ccccc5C4)cc3)o2)cc1,inactive: > 76.9 µM
8,CC12CS(=O)(=O)CC1SC(=S)N2c1ccccn1 (stereo not drawn),inactive: > 76.9 µM
9,CC(Sc1ccc2c(c1)OCCO2)C(=O)Nc1ccc2c(c1)OCO2 (stereo not drawn),active: 15 µM
10,CC(=O)Cc1ccccc1OCC(=O)O,inactive: > 76.9 µM
11,Cc1cn2nc(N)c3ccccc3c2n1,inactive: > 76.9 µM
12,O=C(Cc1ccccc1)Nc1ccc(-c2nnc(-c3ccco3)o2)cc1,inactive: > 76.9 µM
13,O=C(NC1CCCCCC1)C1CCCN(S(=O)(=O)c2cccs2)C1 (stereo not drawn),inactive: > 76.9 µM
14,Cc1ccc(NS(=O)(=O)c2cc(C(=O)N3CCOCC3)ccc2C)cc1C,inactive: > 76.9 µM
15,O=C(c1ccc2ccccc2c1)N1CCN(c2ccccc2)CC1,inactive: > 76.9 µM
16,CCCc1cc(=O)n2[nH]c(NCc3c(F)cccc3Cl)nc2n1,inactive: > 76.9 µM
17,Cc1nnc(N2CCc3ccccc3C2)[nH]c1=O,inactive: > 76.9 µM
18,O=C(CSc1nc2ccccc2s1)N1CCOCC1,inactive: > 76.9 µM
19,COc1ccc(CCNC(=O)CSc2nnnn2Cc2ccc3c(c2)OCO3)cc1OC,inactive: > 76.9 µM
20,COc1ccc(-n2c(=O)cc(N3CCN(c4ccccc4)CC3)[nH]c2=O)cc1,inactive: > 76.9 µM
21,Cc1cccc(NC(=O)CSCc2c(C)noc2C)c1C,inactive: > 76.9 µM
22,Cc1onc(-c2ccccc2Cl)c1C(=O)Nc1ccc(S(=O)(=O)NCC2CCCO2)cc1 (stereo not drawn),inactive: > 76.9 µM
23,CCN(CC)CCn1c(=S)[nH]c2cc(Cl)ccc2c1=O,inactive: > 76.9 µM
24,O=C(COC(=O)Cn1cnc2ccccc21)NCCC1=CCCCC1,inactive: > 76.9 µM

row,Structure (SMILES),Potency
1,CCC(=O)Nc1ccc2nc(C)n(CC(=O)Nc3ccccc3)c(=O)c2c1,inactive: > 76.9 µM
2,CC1(C)NC(=O)N(CNc2cc(Cl)ccc2Cl)C1=O,inactive: > 76.9 µM
3,Cc1nc(SCn2nnc3ccccc3c2=O)nc(C)c1C,inactive: > 76.9 µM
4,O=C(c1cc2n(n1)C(C(F)(F)F)CC(c1ccc(Cl)cc1)N2)N1CCCC1 (stereo not drawn),inactive: > 76.9 µM
5,O=C(CSc1nnc(CNC(=O)c2ccco2)o1)NC1CCCC1,inactive: > 76.9 µM
6,O=C(c1ccco1)N(Cc1ccco1)c1ccc(O)cc1,inactive: > 76.9 µM
7,Cc1cccc(N2CCN(C(=O)c3cc4c(=O)[nH]c5ccccc5c4n3C)CC2)c1C,inactive: > 76.9 µM
8,CCn1nccc1C(=O)NC1=C(C#N)CCC1,inactive: > 76.9 µM
9,COc1ccc(N(CC(=O)Nc2cccc(C)c2)S(=O)(=O)c2c(C)n[nH]c2C)cc1,inactive: > 76.9 µM
10,CCOC(=O)N1CCC(NC(=O)CCC(=O)N2CCOc3ccc(C)cc32)CC1,inactive: > 76.9 µM
11,CC1(C)CC(=O)c2sc(N)nc2C1,inactive: > 76.9 µM
12,O=C1CC(N2CCCCCC2)C(=O)N1c1ccc2c(c1)OCO2 (stereo not drawn),inactive: > 76.9 µM
13,CC(=O)c1ccc(NC(=O)CSc2nnc(-c3ccoc3C)n2Cc2ccccc2)cc1,inactive: > 76.9 µM
14,COc1ccc(CCNS(=O)(=O)c2cccc(C(=O)O)c2)cc1OC,inactive: > 76.9 µM
15,OC1CCN(c2c3c(nc4cc(-c5cccc(F)c5)nn24)CCCC3)CC1,inactive
16,COc1ccc(C2C(=O)N(C3CCCCCC3)CC(=O)N2Cc2ccccc2)cc1OC (stereo not drawn),inactive: > 76.9 µM
17,CCc1nnc(SCC(=O)NC2CCCCC2)nc1CC,inactive: > 76.9 µM
18,Fc1ccc2nc(N3CCCCC3)sc2c1,inactive: > 76.9 µM
19,COc1ccc(N2C(=O)CC(NCc3cccs3)C2=O)cc1 (stereo not drawn),inactive: > 76.9 µM
20,CC(=O)Nc1cccc2c1OCCO2,inactive: > 76.9 µM
21,O=C(CCCSc1nc2ccccc2[nH]1)Nc1nnc(-c2ccccc2)o1,inactive: > 76.9 µM
